# According to PubChem BioAssay AID435005 (Broad Institute, 2010):
# Where “and” joins values, the source holds several entries; their conditions need not be identical. Identical values can stand only once. The whole screen tested about 300,000 compounds, of which about 2,400 (0.8%) were called active. The shares of active, inactive and inconclusive entries below differ from those in the screen.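 Rule for the calls: active = Every replicate reaches about 75%, or at least half do and their mean reaches it too (limit read from the data); inconclusive = At least half of replicates reach the limit but their mean does not; inactive = Under half of replicates reach the limit.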
# Assay: inhibitors of cytokine-induced beta cell apoptosis, primary screen, luminescence (AID 435005);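 note: 0% = cytokine-treated negative control wells and 100% = positive control rescue; higher means more ATP so stronger rescue from cytokine killing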
# Details: INS-1E cytokine-induced death, ATP luminescence, 48 h; hits give high values; percent of positive-control rescue, neutral wells zero; concentration not given here
row,SMILES,protection from apoptosis
1,COc1ccc(CCNC(=O)c2cc3c(=O)n4cccc(C)c4nc3n(Cc3ccco3)c2=N)cc1OC,active: 105%
2,O=C(CCCn1cnc([N+](=O)[O-])n1)Nc1ccc(Cl)c(Cl)c1,inactive: -0.135%
3,CC(C)(C)c1ccc(C(O)CCCN2CCC(C(O)(c3ccccc3)c3ccccc3)CC2)cc1 (stereo not drawn),inconclusive: 73.3%
4,O=C(c1ccc(F)c(S(=O)(=O)N2CCOCC2)c1)N1CCN(c2ccc(F)cc2)CC1,inconclusive: 46.6%
5,CCOC(=O)N1CCN(Cc2cc(Cl)c3cccnc3c2O)CC1,active: 103%
6,CCCCCCCCSc1nnc2[nH]c(=O)cc(N)n12,inactive: 4.29%
7,Cc1ccnc(NC(=O)c2ccc(S(=O)(=O)NCc3ccco3)cc2)c1,inactive: -10.1%
8,COc1cccc(/C=N/NC(=O)c2c(-c3ccccc3)noc2C)c1O,active: 87%
9,O=C(N/N=C/c1ccc(O)c2ncccc12)c1cccc(Br)c1,active: 109%
10,COc1ccc(-c2ccc(SCC(=O)NC3CCCCC3)nn2)cc1OC,inactive: 11.1%
11,CCCCCc1cc(O)c2c(C)cc(=O)oc2c1,active: 130%
12,O=C(CCSc1ccccc1)Nc1nnc(-c2ccccc2)o1,inactive: -0.753%
13,Cc1nc(Nc2ccc(Cl)c(Cl)c2)sc1C(=O)Nc1ccccc1,active: 86.4%
14,CCN(CC)CCOc1ccc2c(c1)C(=NO)c1cc(OCCN(CC)CC)ccc1-2,inconclusive: 74.2%
15,O=C1NC(Cc2ccccc2)c2nc3ccc(Cl)cc3c(=O)n2-c2ccccc21 (stereo not drawn),inactive: 2.38%
16,CC[C@@H]1C/C=C\Cc2ccccc2[C@H](C(=O)C[C@@H](O)CC(C)=O)OC1=O,inconclusive: 62.3%
17,COc1ccc(S(=O)(=O)N2CCNCC2)cc1OC,inconclusive: 49.4%
18,CCCCCCCC/C=C\CCCCCCCC(=O)NCCc1ccc(O)c(O)c1,inconclusive: 45.4%
19,Nc1c(C(=O)Nc2ccc(S(=O)(=O)N3CCCC3)cc2)sc2nc3ccc(OC(F)(F)F)cc3cc12,active: 98%
20,CCOC(=O)c1c(C)oc2c1C(=O)c1ccccc1C2=O,active: 84.2%
21,Cc1cc(C(=O)c2ccc3ccccc3c2)c(C)o1,inconclusive: 54.4%
22,CCc1ccc(S(=O)(=O)Nc2ccc(O)c3ccccc23)cc1,inconclusive: 73.5%

row,SMILES,protection from apoptosis
1,Cc1cc(C)n(-c2nc(NC(C)(C)C)nc(NC(C)(C)C)n2)n1,inconclusive: 72.3%
2,CN1C(=O)C(Cc2cnc[nH]2)NC1=S (stereo not drawn),inactive: -4.67%
3,Cn1ncc2c(N3CCN(c4ccc(Cl)c(Cl)c4)CC3)ncnc21,inconclusive: 71.5%
4,CCCN(CCC)C(=O)c1cc([N+](=O)[O-])cc2c1-c1ccc([N+](=O)[O-])cc1C2=C(C#N)C#N,inconclusive: 72.9%
5,COc1ccc(C2CC(c3cccc(C)c3)n3nc(N)nc3N2)cc1 (stereo not drawn),inconclusive: 74.1%
6,CCOc1cc(/C=C\[N+](=O)[O-])ccc1OCC(=O)Nc1ccccc1C,active: 80%
7,COc1ccc(NCc2nnc(SCC(=O)Nc3nc(-c4ccccc4)cs3)n2-c2ccccc2)cc1,inconclusive: 64.3%
8,CCn1c(=O)cc(SCC(=O)N2CCN(C)CC2)c2ccccc21,inactive: 0.56%
9,Cc1nnc(N=c2ssnc2Cl)o1,inconclusive: 73.4%
10,CCC(CO)Oc1cc(NCc2ccc(C)c(C)c2)c2ncn(C(C)C)c2c1 (stereo not drawn),active: 101%
11,CCN(CC)c1ccc2cc(-c3nc4ccccc4[nH]3)c(=O)oc2c1,inconclusive: 74.1%
12,O=C(Cc1cc(=O)[nH][nH]1)N/N=C/C=C/c1ccccc1,inactive: -16.5% and inactive: -4.9%
13,O=C(Nc1c2ccccc2nc2ccccc12)C(Cl)(Cl)Cl,inconclusive: 73.7%
14,COc1ccc(CNCCC(c2ccc(OC(C)C)cc2)c2ccccc2OC)cc1 (stereo not drawn),inconclusive: 74.5%
15,O=C(Cn1nnnc1CN1CCOCC1)N1CCC(c2cccc(Cl)c2)C1 (stereo not drawn),inactive: -4.19%
16,CCSC1=NCCN1C(=O)C(C)(C)Oc1ccc(Cl)cc1,inconclusive: 70.1%
17,CC1=C/C(=N\OS(=O)(=O)c2ccccc2)C(C(C)C)=CC1=O,inconclusive: 71.5%
18,CN(C)S(=O)(=O)c1ccc(Oc2ccc(S(=O)(=O)N(C)C)cc2)cc1,inconclusive: 70.7%
19,CCCC(=O)NC(c1ccc(Cl)cc1)c1ccc2cccnc2c1O (stereo not drawn),active: 113%
20,COc1ccc2nc3cc(Cl)ccc3c(Nc3cc(CN4CCCC4)c(O)c(CN4CCCC4)c3)c2n1,inconclusive: 73.2%
21,Cc1cccc(C)c1NC(=O)CNC(=O)c1c(C)nn(C)c1Cl,inconclusive: 62.3%
22,CCN(CC)S(=O)(=O)c1ccc(-c2nnc(SCC(=O)N3CCc4ccccc43)o2)cc1,inactive: -11.4%

row,SMILES,protection from apoptosis
1,COCCNC(=O)CSC1=N/C(=C/c2ccc(Cl)c(Cl)c2)C(=O)N1c1ccccc1F,inconclusive: 73.7%
2,CC(=O)C(C(C)=O)c1c(Cl)c(O)c(O)c2c(C(=O)c3ccccc3)coc12,active: 128%
3,CC1CN(C(=O)c2ccc(Cl)c(S(=O)(=O)NCc3ccco3)c2)CC(C)O1 (stereo not drawn),inactive: -5.4%
4,CS(=O)(=O)c1ncc(Cl)c(C(=O)Nc2ccc(OC(F)F)cc2)n1,inconclusive: 72%
5,Cc1ccc(-c2cnc(NC(=O)CCC(=O)N(C)Cc3ccccc3)n2C)cc1,inconclusive: 59%
6,CCN(CC)Cc1c(O)ccc2c1O/C(=C\C=C\c1ccccc1)C2=O,active: 105%
7,Cc1ccc(O)c(NC(=S)NC(=O)c2ccc(-c3ccc(Cl)cc3)o2)c1,inconclusive: 70.6%
8,Cc1nc2cc(-c3ccccc3)sc2c(=O)n1N,inconclusive: 73.6%
9,CCc1ccc(N(CC(=O)NC(C)(C)CC)C(=O)CCC(=O)Nc2nccs2)cc1,inactive: 0.6%
10,COc1cc(CNC2CCCC2)cc(Cl)c1OCc1ccccc1Cl,inconclusive: 67.3%
11,Cn1c(SCC(=O)N/N=C/c2ccc([N+](=O)[O-])s2)nnc1-c1ccccc1,inconclusive: 68.7%
12,Cc1ccc(C(=O)N/C(=C\c2ccc(-c3ccccc3[N+](=O)[O-])o2)C(=O)NCCCN2CCOCC2)cc1,inconclusive: 71.9%
13,COc1ccccc1NC(=O)CC12CC3CC(CC(Br)(C3)C1)C2,inactive: -7.93%
14,CCOC(=O)C(=Cc1ccc(Br)cc1)C(=O)OCC,active: 86.2%
15,CC(C)(C)c1ccc(-c2nc(-c3ccncc3)no2)cc1,inactive: 31.5%
16,CC(=O)c1c(C)oc2c1C(=O)c1ccccc1C2=O,active: 96.5%
17,Cc1cc(NN)nc2ccc(Cl)cc12,inactive: 6.04%
18,CN(/N=C/c1cc(Br)cc(Br)c1O)c1cccc(C(F)(F)F)n1,inconclusive: 67.8%
19,CC(C)(C)NC(=O)C(c1ccc(O)cc1)N(Cc1ccco1)C(=O)Cn1nnc(-c2cccs2)n1 (stereo not drawn),inactive: -3.3%
20,CCC(C)Sc1cccc(-c2nc3ccc(C)cn3c2NCc2ccccc2)c1 (stereo not drawn),inconclusive: 73.5%
21,CC(=O)NC(c1ccco1)c1ccc2cccnc2c1O (stereo not drawn),active: 90.2%
22,Cc1cc(N2CCOCC2)nc(N)n1,inconclusive: 67.6%

row,SMILES,protection from apoptosis
1,COc1ccc(Nc2nc(Cl)nc(NCc3ccco3)n2)c(OC)c1,inactive: 5.23%
2,Cc1cccnc1CCNCc1c(C(=O)N2C[C@@H](C)O[C@@H](C)C2)nc2ccc(Cl)cn12,inconclusive: 43.6%
3,Cn1nc([N+](=O)[O-])nc1Sc1cccc2cccnc12,active: 94.2%
4,S=c1[nH]nc(-c2cc(-c3ccccc3)n[nH]2)n1/N=C/C(Br)=C/c1ccccc1,inconclusive: 73.7%
5,C/C(=N\Nc1nc(C)cc(-c2ccccc2)n1)c1ccc(F)cc1,active: 78%
6,CSCC[C@H](NC(=O)C1CCN(S(=O)(=O)c2ccc(C)cc2C)CC1)c1nc2ccccc2[nH]1,inactive: -2.13%
7,CC(=O)c1c(C)n(CC(=O)NCc2ccco2)c2ccccc12,inconclusive: 63.3%
8,CCn1c(=O)c(C(=O)Nc2ccccn2)c(O)c2ccccc21,inconclusive: 67.4%
9,COc1cccc(C(=O)Oc2c(CN3CCOCC3)cc(Cl)c3cccnc23)c1,active: 89.9%
10,COc1ccc2cc1Oc1ccc(cc1)C[C@H]1c3c(cc(OC)c4c3Oc3c(ccc5c3[C@H](C2)N(C)CC5)O4)CCN1C,active: 122%
11,CCOC(=O)CSc1nc2c(c(=O)[nH]1)C(C)(CC)Cc1ccccc1-2 (stereo not drawn),inconclusive: 70.3%
12,CCCCCCSc1cccc(-c2nc3ccccn3c2NCc2ccccc2)c1,inconclusive: 69.9%
13,COc1ccc(/C=N/N2CCN(Cc3ccccc3)CC2)cc1,inconclusive: 55.3%
14,COc1ccccc1NC(CC(=O)c1ccccc1)C(=O)OCC(=O)c1ccc(C)c(C)c1 (stereo not drawn),inactive: -12.7%
15,Cc1oc(-c2ccccc2)cc1C(=O)NC(Cc1c[nH]c2ccccc12)C(=O)O (stereo not drawn),inconclusive: 52.8%
16,C=CCN1c2ccccc2[C@]23C[C@@H](C(=O)OC)N(C(=O)OCC)C2=NC(C(=O)OC)=C(C(=O)OC)[C@H]13,inactive: -0.543%
17,C/C(=N/NC(=O)CN1CCN(Cc2ccccc2Cl)CC1)c1cccnc1,inactive: 3.14%
18,CC(C)(C)c1cc(CCC(=O)NNC(=S)NC(=O)c2ccccc2)cc(C(C)(C)C)c1O,inconclusive: 73.3%
19,Cc1ccccc1-n1ncc2c1CC(C)(C)CC2NC(=O)CN1CCCC1=O (stereo not drawn),inactive: -4.73%
20,CCN(CC)c1ccc(C(=O)Nc2cccc(F)c2)cc1,inactive: 8.87%
21,Cc1ccc(C(=O)N/C(=C\c2ccc(-c3ccc(Cl)cc3)o2)C(=O)NCCCN(C)C)cc1,active: 110%
22,CN(C)CCCOC(=O)c1sc2ccccc2c1Cl,inactive: -2.35%
